The whole screen tested about 370,000 compounds, of which about 150 (0.041%) were called active. Inconclusive results, whose numbers are uncertain, are shown with a selection of clear calls. The call rests on the fitted dose curve; in most records, active means well fitted inhibition curve with a large enough effect; inconclusive means small, poorly fitted or top-dose-only effect; inactive means flat fitted curve, though single readings scatter. No potency is given beside an inconclusive call; the fits are too rough.
Target: Beta-lactamase (Escherichia coli (strain K12)) (UniProt P00811)
Assay: qHTS Inhibitors of AmpC Beta-Lactamase (assay with detergent); further: nearly all actives have a fitted effect of over 25% in size;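 on activity change, negative = inhibition: 0% = no-compound wells and -100% = no-enzyme wells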
Details: AmpC hydrolysis of nitrocefin, absorbance 480 nm, 0.01% Triton; activity change, negative = inhibition: at 114 µM (top of the series)
How it was run: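 20 mM phosphate pH 7.0 + 0.01% (detergent screen) or 0.0001% Triton X-100; 5.3 nM AmpC reagent; cpd preinc 15 min RT; nitrocefin (800 uM stock) to start; A480 q20 s × 4 min; Activity was normalised to no-enzyme and no-compound control wells.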
Potency means the concentration at half of the fitted maximal effect; tags describe the fitted curve by direction and shape.

UniProt P00811, sequence (P00811 whole entry, looked up): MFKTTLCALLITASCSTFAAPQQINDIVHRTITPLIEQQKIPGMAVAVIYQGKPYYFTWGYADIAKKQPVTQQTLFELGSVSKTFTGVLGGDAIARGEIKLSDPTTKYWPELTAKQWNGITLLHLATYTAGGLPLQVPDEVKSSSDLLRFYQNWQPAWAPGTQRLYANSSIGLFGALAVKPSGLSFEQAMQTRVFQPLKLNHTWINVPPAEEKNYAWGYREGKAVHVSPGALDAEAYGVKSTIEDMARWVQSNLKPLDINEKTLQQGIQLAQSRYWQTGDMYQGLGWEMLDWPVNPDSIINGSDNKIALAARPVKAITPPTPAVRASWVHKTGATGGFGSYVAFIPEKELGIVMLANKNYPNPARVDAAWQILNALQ

Row | Compound | Potency | activity change, negative = inhibition
1 | O=C(c1cccnc1)N1CCN(S(=O)(=O)c2cccc(Cl)c2)CC1 | inconclusive [inhibitor, full curve, poor fit] | 
2 | CCN(Cc1cc2cccc(C)c2[nH]c1=O)C(=O)c1ccccc1OC | inconclusive [inhibitor, full curve] | 
3 | O=S(=O)(c1ccc(Br)cc1)n1c(Cc2ccccc2)nc2ccccc21 | inconclusive [inhibitor, partial curve, poor fit] | 
4 | N#Cc1cc2sc3nnc(-c4ccncc4)n3c2cc1C#N | inconclusive [inhibitor, single point] | 
5 | CC(=O)Nc1ccc(Nc2cc(N3CCOCC3)c3nonc3c2[N+](=O)[O-])cc1 | inconclusive [inhibitor, single point] | 
6 | COc1ccc(CCN(Cc2ccccn2)C(=S)Nc2ccccc2F)cc1OC |  | inactive: 0.764%
7 | CCOC(=O)/C=C/C(=O)Nc1ccc(S(=O)(=O)Nc2c(C)cc(C)cc2C)cc1 | inconclusive [inhibitor, full curve, poor fit] | 
8 | CCN(CC)CCn1c2c(c(SCC(=O)Nc3nccs3)nc1=O)CCCC2 | inconclusive [inhibitor, full curve, poor fit] | 
9 | CCOC(=O)CCN(c1ccccc1)S(=O)(=O)c1ccc(-c2ccc(=O)[nH]n2)s1 | inconclusive [inhibitor, full curve, poor fit] | 
10 | Cc1cc(C)nc(N2CCCC(C(=O)NCc3cccs3)C2)n1 (stereo not drawn) | inconclusive [inhibitor, partial curve, poor fit] | 
11 | CCN(CC)S(=O)(=O)c1cccc(C(=O)OC2CCOC2=O)c1 (stereo not drawn) | inconclusive [inhibitor, partial curve] | 
12 | COc1ccc(/C(C)=N/NC(=O)c2cccc(S(=O)(=O)N3CCCC3)c2)c(O)c1 |  | inactive: -3.92%
13 | COCCNC(=O)CCc1nc(-c2ccccc2)no1 | inconclusive [inhibitor, full curve, poor fit] | 
14 | CCCNC(=O)C(=O)NCCC1=CCCCC1 | inconclusive [inhibitor, single point] | 
15 | O=C(Cn1cnc2c(nnn2-c2ccccc2)c1=O)N1CCOCC1 | inconclusive [inhibitor, full curve] | 
16 | COc1ccc(Nc2oc(-c3ccco3)nc2S(=O)(=O)c2ccc(F)cc2)cc1 | inconclusive [inhibitor, full curve, poor fit] | 
17 | CCN1CCN(c2ncnc3c2cnn3-c2ccc(Cl)cc2)CC1 |  | inactive: 4.04%
18 | O=C(CCc1ccccc1)NNC(=S)NC(=O)c1ccccc1 |  | inactive: -13.6%
19 | N#CCc1ccc(NC(=O)c2ccc(CN3CCc4ccccc4C3)cc2)cc1 |  | inactive: -5.16%
20 | Cc1ccc(C(=O)C2=C(O)C(=O)N(Cc3ccco3)C2c2ccc(N(C)C)cc2)o1 (stereo not drawn) |  | inactive: 1.68%
21 | CCc1ccc(C(=O)c2cn(CC(=O)Nc3ccc4c(c3)OCO4)c3ccc(OC)cc3c2=O)cc1 |  | inactive: -5.04%
22 | COc1ccc2nc3oc(C(=O)NC4CCN(Cc5ccccc5)CC4)cc3cc2c1 |  | inactive: -8.4%
23 | CCC(C)(C)C1CCC(=NNC(=S)Nc2ccccc2)CC1 (stereo not drawn) |  | inactive: 4.41%

Row | Compound | Potency | activity change, negative = inhibition
24 | CCOc1ccc(-c2nc(N)ncc2-c2ccc(OC)cc2)c(O)c1 | inconclusive [inhibitor, full curve, poor fit] | 
25 | O=C(c1ccccc1)c1cn(CC(=O)N2CCCc3ccccc32)c2ccccc12 | inconclusive [inhibitor, single point] | 
26 | Cc1ccc(C(C)C)c(OCC(=O)N2CCN(c3ncccn3)CC2)c1 | inconclusive [inhibitor, full curve, poor fit] | 
27 | COc1cc(NC(=O)c2cccc3c2C(=O)N(C2CCCCC2)C3)cc(OC)c1OC | inactive | 
28 | Cc1ccccc1NC(=O)Cc1nc(COC(=O)CCNS(=O)(=O)c2ccccc2)cs1 | inconclusive [inhibitor, partial curve, poor fit] | 
29 | O=C1/C(=C/c2cccnc2)N2CCC1CC2 | inconclusive [inhibitor, single point] | 
30 | C=CCNCCCCOc1ccc(OCc2ccccc2)cc1 |  | inactive: -1.97%
31 | Cc1ccc(S(=O)(=O)Nc2c(C(=O)O)[nH]c3ccccc23)c(C)c1 | inconclusive [inhibitor, full curve, poor fit] | 
32 | O=C(Nc1nnc(C2CC2)s1)C1CCCO1 (stereo not drawn) | inconclusive [inhibitor, single point] | 
33 | Cc1cccc(C)c1OCC(=O)Nc1ccc(S(=O)(=O)Nc2ccccn2)cc1 | inconclusive [inhibitor, full curve, poor fit] | 
34 | CCN1C(=O)C(O)(CC(=O)c2ccc(-n3cccc3)cc2)c2ccccc21 (stereo not drawn) | inconclusive [inhibitor, partial curve] | 
35 | ClCc1ncc(-c2ccc(Cl)cc2)o1 |  | inactive: -9.64%
36 | CC(C)(C=O)C1=CC(=O)c2ccccc2C1=O | inconclusive [inhibitor, partial curve] | 
37 | CC1CCC(NCCc2ccc3c(c2)OCO3)CC1 (stereo not drawn) | inconclusive [inhibitor, full curve, poor fit] | 
38 | O=C1OC(/C=C/c2ccc(Cl)cc2Cl)=NC/1=C\c1cccs1 | inconclusive [inhibitor, full curve] | 
39 | O=C(NCCOc1ccc(Cl)cc1)C(=O)NCC1CCCO1 (stereo not drawn) |  | inactive: -3.01%
40 | CCC(=O)Nc1nc(C)c(-c2csc(Nc3ccc(C(=O)O)cc3)n2)s1 |  | inactive: 0.982%
41 | Cc1cc(C)c(C)c(OCC(=O)NCC2CCCO2)c1 (stereo not drawn) |  | inactive: 0.415%
42 | Cc1cc(NS(=O)(=O)c2ccc(NC(=O)c3cc4ccccc4o3)cc2)no1 | inconclusive [inhibitor, full curve, poor fit] | 
43 | O=C(c1ccc(-c2cccc(Cl)c2)o1)N1CCN(c2ccc([N+](=O)[O-])cc2)CC1 | inconclusive [inhibitor, partial curve] | 
44 | CCOc1cc(C(=O)Nc2cc3c(cc2N2CCOCC2)n(C)c(=O)n3C)cc(OCC)c1OCC | inactive | 
45 | CCc1ccc(CN(C)C(=O)c2cccc(S(=O)(=O)Nc3ccccc3OC)c2)cc1 | inconclusive [inhibitor, single point] | 
46 | CCN1C/C(=C\c2cccc(C)c2)c2nc3ccccc3c(C(=O)O)c2C1 | inconclusive [inhibitor, full curve, poor fit] | 

Row | Compound | Potency | activity change, negative = inhibition
47 | Cc1cc(N/N=C/c2ccc(F)cc2)nc(-n2nc(C)cc2C)n1 |  | inactive: 0.746%
48 | Cc1cc(C)c(C(=O)CN2C(=O)NC3(CCCCCC3)C2=O)cc1C |  | inactive: -2.18%
49 | Cc1cc(C)cc(NS(=O)(=O)c2coc(C(N)=O)c2)c1 | inconclusive [inhibitor, partial curve, poor fit] | 
50 | Cc1cc(SCC(=O)N(CC(C)C)c2c(N)n(CC(C)C)c(=O)[nH]c2=O)nc2ccccc12 | inconclusive [inhibitor, single point] | 
51 | CSC1=N/C(=C\c2ccccc2F)C(=O)S1 | inconclusive [inhibitor, full curve, poor fit] | 
52 | O=C(Nc1ccc(Br)c2cccnc12)c1ccc(Cn2cc([N+](=O)[O-])cn2)o1 | inconclusive [inhibitor, full curve] | 
53 | CC(C)(C)c1cc[n+](/C(C(=S)Nc2ccccc2F)=C(/[O-])c2ccc3c(c2)OCCO3)cc1 |  | inactive: 1.48%
54 | N#Cc1sc2nc(C3CC3)cc(-c3ccc(Cl)cc3)c2c1N | inconclusive [inhibitor, full curve, poor fit] | 
55 | CCOC(=O)c1c(C)[nH]c(C)c1C(=O)COC(=O)c1cc2ccccc2cc1OC | inconclusive [inhibitor, full curve, poor fit] | 
56 | OC(c1ccccc1)(c1ccccc1)C1CN2CCC1CC2 (stereo not drawn) |  | inactive: 5.62%
57 | CO/N=C/C(=N\Nc1ccc(OC)cc1)C(=O)c1ccc(F)cc1 | inconclusive [inhibitor, full curve, poor fit] | 
58 | N#Cc1cccc(NC(=O)c2ccccc2C(=O)O)c1 |  | inactive: 0.452%
59 | O=C(CSc1nnc(SCc2ccccc2Cl)s1)N/N=C/c1c[nH]c2ccccc12 | inconclusive [inhibitor, partial curve, poor fit] | 
60 | COc1ccc(Cl)cc1N1C(=O)C2CCCN2C1c1cccc(F)c1 (stereo not drawn) | inconclusive [inhibitor, full curve, poor fit] | 
61 | COc1ccc(CN=Cc2c(O)[nH]c3ccccc23)cc1 | inconclusive [inhibitor, full curve, poor fit] | 
62 | CCOc1cc(N2CCOCC2)c(OCC)cc1NC(=O)CN1C(=O)NC2(CCc3ccccc32)C1=O (stereo not drawn) | inconclusive [inhibitor, single point] | 
63 | COc1cc2[nH]c(=S)nc(NCCC(C)C)c2cc1OC | inconclusive [inhibitor, full curve] | 
64 | COc1ccc(N(CC(=O)NC2CCCC2)C(=O)CCC(=O)Nc2cc(C)on2)cc1 | inconclusive [inhibitor, full curve, poor fit] | 
65 | N#Cc1ccc(COC(=O)CSc2nnc(C3CCCCC3)n2N)cc1 |  | inactive: -4.33%
66 | COc1ccc(CNC(=O)c2cc(C3CC3)nc3c2cnn3C(C)C)cc1 | inconclusive [inhibitor, partial curve, poor fit] | 
67 | O=C(CCC(=O)N1CC2CCCN2c2ccccc21)NCc1ccc(Cl)cc1 (stereo not drawn) |  | inactive: -7.07%
68 | O=C(CCN1C(=O)COc2ccccc21)NCc1cccnc1 | inconclusive [inhibitor, full curve, poor fit] | 

Reference: PubChem BioAssay AID485294 (National Center for Advancing Translational Sciences (NCATS), 2010)
